From paper PMC3498381, “Isolated Toll-like Receptor Transmembrane Domains Are Capable of Oligomerization” (PLoS ONE, 2012)
No constants are given. Whether binding was seen depends on the method and setting. Some entries that bind do so weakly or less than the wild type.

Tests used:
[1] = molecular target: TLR2 transmembrane domain G593V (ToxR chimera) (human) (UniProt O60603); test: ToxR reporter assay; homotypic; MBP-TMD-ToxR chimera in the membrane of E. coli FHK12; β-galactosidase activity (Miller units) normalised to the GpA signal and to expression levels
[2] = molecular target: TLR2 transmembrane domain C609I (ToxR chimera) (human) (UniProt O60603); test: as above
[3] = molecular target: TLR2 transmembrane domain A597V (ToxR chimera) (human) (UniProt O60603); test: as above
[4] = molecular target: TLR10 transmembrane domain (ToxR chimera) (human); test: as above
[5] = molecular target: T1, TLR1 transmembrane domain (ToxR chimera) (human); test: as above
T1 sequence: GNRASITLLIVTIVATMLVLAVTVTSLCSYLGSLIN

[6] = molecular target: T1, TLR1 transmembrane domain (ToxR chimera) (human); test: dominant-negative ToxR reporter assay; heterotypic; one TMD with functional ToxR (dominant phenotype) and one with non-functional ToxR* (negative phenotype) co-expressed in E. coli FHK12; interaction read as reduction of β-galactosidase signal; normalised to poly-Leu* and to expression …
[7] = molecular target: T2, TLR6 transmembrane domain (ToxR chimera) (human); test: ToxR reporter assay; homotypic; MBP-TMD-ToxR chimera in the membrane of E. coli FHK12; β-galactosidase activity (Miller units) normalised to the GpA signal and to expression levels
T2 sequence: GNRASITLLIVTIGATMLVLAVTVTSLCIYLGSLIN

[8] = molecular target: T2, TLR6 transmembrane domain (ToxR chimera) (human); test: dominant-negative ToxR reporter assay; heterotypic; one TMD with functional ToxR (dominant phenotype) and one with non-functional ToxR* (negative phenotype) co-expressed in E. coli FHK12; interaction read as reduction of β-galactosidase signal; normalised to poly-Leu* and to expression …
[9] = molecular target: T3, TLR2 transmembrane domain (ToxR chimera) (human); test: ToxR reporter assay; homotypic; MBP-TMD-ToxR chimera in the membrane of E. coli FHK12; β-galactosidase activity (Miller units) normalised to the GpA signal and to expression levels
T3 sequence: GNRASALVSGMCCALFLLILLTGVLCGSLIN

[10] = molecular target: T3, TLR2 transmembrane domain (ToxR chimera) (human); test: dominant-negative ToxR reporter assay; heterotypic; one TMD with functional ToxR (dominant phenotype) and one with non-functional ToxR* (negative phenotype) co-expressed in E. coli FHK12; interaction read as reduction of β-galactosidase signal; normalised to poly-Leu* and to expression …
[11] = molecular target: TLR5 transmembrane domain (ToxR chimera) (human); test: ToxR reporter assay; homotypic; MBP-TMD-ToxR chimera in the membrane of E. coli FHK12; β-galactosidase activity (Miller units) normalised to the GpA signal and to expression levels
[12] = molecular target: TLR3 transmembrane domain (ToxR chimera) (human); test: as above
[13] = molecular target: TLR4 transmembrane domain (ToxR chimera) (human); test: as above
[14] = molecular target: TLR8 transmembrane domain (ToxR chimera) (human); test: as above

TLR2 transmembrane domain G593V (ToxR chimera) (from UniProt O60603 589-609) (domain or fragment)
binding [1]: binds

TLR2 transmembrane domain C609I (ToxR chimera) (from UniProt O60603 589-609) (domain or fragment)
binding [2]: binds

TLR2 transmembrane domain A597V (ToxR chimera) (from UniProt O60603 589-609) (domain or fragment)
binding [3]: binds

B1: TLR10 transmembrane domain (ToxR chimera) (domain or fragment, human)
chain: GNRASALLIVTIVVIMLVLGLAVAFCCLGSLIN
notes: flank encoded by the reading frame of the plasmid construct; Toll-like receptor 10 transmembrane domain, human, as identified by hydrophobic analysis; One molecule for the ToxR and the ToxR* form of this TMD; also called TLR10 TMD; source: E. coli FHK12, transformed with pTox7 or pTox6 plasmid, in the cells' membrane
binding [4]: binds

B2: TLR1 transmembrane domain (ToxR chimera) (domain or fragment)
chain: GNRASITLLIVTIVATMLVLAVTVTSLCSYLGSLIN
notes: flank encoded by the reading frame of the plasmid construct; Toll-like receptor 1 transmembrane domain, human, as identified by hydrophobic analysis; One molecule for the ToxR and the ToxR* form of this TMD; also called TLR1 TMD; source: E. coli FHK12, transformed with pTox7 or pTox6 plasmid, in the cells' membrane
binding [5]: binds
binding [6]: binds

B3: TLR6 transmembrane domain (ToxR chimera) (domain or fragment)
chain: GNRASITLLIVTIGATMLVLAVTVTSLCIYLGSLIN
notes: flank encoded by the reading frame of the plasmid construct; Toll-like receptor 6 transmembrane domain, human, as identified by hydrophobic analysis; One molecule for the ToxR and the ToxR* form of this TMD; also called TLR6 TMD; source: E. coli FHK12, transformed with pTox7 or pTox6 plasmid, in the cells' membrane
binding [7]: binds
binding [8]: binds

B4: TLR2 transmembrane domain (ToxR chimera) (domain or fragment)
chain: GNRASALVSGMCCALFLLILLTGVLCGSLIN
notes: flank encoded by the reading frame of the plasmid construct; Toll-like receptor 2 transmembrane domain, human, as identified by hydrophobic analysis; One molecule for the ToxR and the ToxR* form of this TMD; also called TLR2 TMD; wild type TLR2 TMD; source: E. coli FHK12, transformed with pTox7 or pTox6 plasmid, in the cells' membrane
binding [9]: binds
binding [10]: binds

GNRASFSLFIVCTVTLTLFLMTILTVTGSLIN (domain or fragment) [TLR5 transmembrane domain (ToxR chimera)]
binding [11]: binds
binding [10]: binds weakly
binding [6]: binds weakly
binding [8]: binds weakly

GNRASLFFMINTSILLIFIFIVLLIHFGSLIN (domain or fragment) [TLR3 transmembrane domain (ToxR chimera)]
binding [12]: binds

GNRASTIIGVSVLVVSVVAVLVYKFYFGSLIN (domain or fragment) [TLR4 transmembrane domain (ToxR chimera)]
binding [13]: binds
binding [10]: no binding
binding [6]: no binding
binding [8]: no binding

GNRASVTAVILFFFTFFITTMVMLAALAGSLIN (domain or fragment) [TLR8 transmembrane domain (ToxR chimera)]
binding [14]: binds
